For 34 variants, self-cleavage results are on record in the RNAGym collection of RNA variant scans (doi:10.1093/nar/gkz1192).

Sequences and labels used below:
B1: CPEB3 Ribozyme (parent)
chain: UAACAGGGGGCCACAGCAGAAGCGUUCACGUCGCAGCCCCUGUCAGAUUCUGGUGAAUCUGCGAAUUCUGCUGUAUAUCUC

The source gives no read counts; variants with many changes may rest on few reads.

Variants of B1 are the subject of the data set. The experiment in a line: self-cleavage, relative activity (ratio to wild type); higher = more cleavage; in vitro, sequencing. In outline: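 Relative activity was defined as the cleaved/total read fraction for a variant divided by the same fraction for the unmutated ribozyme. CPEB3 self-cleaving ribozyme libraries were made by rounds of error-prone PCR, barcoded, and transcribed in vitro with T7 RNA polymerase for 5 hours at 37°C, and cleavage ran through transcription plus a 15 min DNase I step before EDTA. Illumina sequencing of template-switched reverse transcripts gave the reads, and DNA sequencing mapped the barcodes. Averages come from three batches, using variants with at least 5 reads.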
Consider UAACGGGGGGCCACAGCAGAAGCGUUCACGUCGCAGGCCCUGUCAGAUUCUGGUGAAUCCGGGAAUUCUGCUGUAUAUCUC [A5G C37G U60C C62G], for which the self-cleavage amounted to 0.12.

As to UAACGGGGGGCCACAGCAGAAGCGUUCACGUCGCAGCCCAUGCCAGAUUCUGGUGAAUCUGCGAAUUCUGCUGUAUAUCCC [A5G C40A U43C U80C], the self-cleavage turned out to be 0.22.

As to UAACGGGGGGCCACAGUAGAAGCGCUCACGUCGCAGCCCCUGUCGGAUUCUGGUGAAUCUGCGAAUUCUGCUAUAUAUCUC [A5G C17U U25C A45G G73A], the self-cleavage came to 0.54.

As for UAACGGGGGGCCACAGCAGAAGCGUUCAUGUCGCAGCCCCUGUCAGAUUCUGGUGAAUCUGCGGAUUCUGCUGUAUAUCUC [A5G C29U A64G], the self-cleavage was determined as 0.42.

As to UAACGGGGGGCCACAGUAGAAGCGUUCACGUCGCUGCCCCUGUCAGAUUCUGGUGAAUCUGCGAAUUCUGCUGUAUAUCCC [A5G C17U A35U U80C], the self-cleavage was found to be 0.39.

On to UAACGGGGGGCCACAGCAGAAGCGUUCAUGUCGCAGCCCAUGUCAGAUUCUGGUGAAUCUGCGAAUUCUGCUGUACAUCUC [A5G C29U C40A U76C], for which the self-cleavage is 0.62.

Regarding UAACGGGGGGCCACAGCAGAAGCGUUCACGUCGCAGCCCACGUCAGAUUCUGGUGAAUCUGCGGAUUCGGCAGUAUAUCUC [A5G C40A U41C A64G U69G U72A], the self-cleavage was found to be 0.06.

Turning to UAACGGGGGGCCACAGUAGAAGCGUUCUCGUCGCAGCCCCUGUCAGGUUCUGGUGAAUCUGCGAACUCUGCUGUAUAUCUC [A5G C17U A28U A47G U66C], the self-cleavage came to 0.3.

For the variant UAACGGGGGGCCACAGUAGAAGCGCUCGCGUCGCAGCCCCCGUCAGAUUCUGGUGAAUCUGCGAAUUCUGCUGUAUAUCUC [A5G C17U U25C A28G U41C], the self-cleavage was found to be 0.42.

For UAACGGGGGGCCACAGCAGAAGCGUUCACGUUGCAGCCCCUGCCAGAUUCUGGUGAGUCUGCGAAUUCCGCUGUGUAUCUC [A5G C32U U43C A57G U69C A75G], the self-cleavage was determined as 0.03.

With UAACGGGGGGCCACAGCAGAAGCGUUCACGUCGAAGCCCCUGUCAGAUUCUGGUGAAUCUCCGAAUUCUGCAGUAUAUCUC [A5G C34A G61C U72A], the self-cleavage worked out at 0.06.

As to UAACGGGGGGCCACAGCAGAAGCGUUAACGUCGCAGCCCCUGUCAGAUUCUGGUGAAUCUGCGAACUCUGAUGUAUAUCUC [A5G C27A U66C C71A], the self-cleavage is 0.14.

For the variant UAACGGGGGGCCACAGCAGAAGCGUUCAUGUCGCAGCCCCUGUCAGAUUCUGGUGAAUCUGCGAAUUCUGCUGUAUAUCAC [A5G C29U U80A], the self-cleavage came out at 0.62.

Turning to UAACGGGGGGCCACAGGAGAAGCGUACACGUCGCGGCCCCUGUCGGAUUCUAGUGAAUCUGCGAACUCUGCUGUAUAUCUC [A5G C17G U26A A35G A45G G52A U66C], the self-cleavage was found to be 0.15.

As for UAACGGGGGGCCACAGCAGAAGGGUUCACGUCGCAGCCCCUGUCAGGUUCUGGUGAAUCUGCGGACUCUGCUGUAUAUAUC [A5G C23G A47G A64G U66C C79A], the self-cleavage came to 0.06.

For the variant UAACGGGGGGCCACAGCAGAAGCGUUCACGUCGCAGCCGCUGUCAGAUUCUGGUGAAUGUGCGAAUUCUGCUGUAUAUCUC [A5G C39G C59G], the self-cleavage is 0.28.

Consider UAACGGGGGGCCACAGCAGAAGCGUUCAUGUCGCAGCCCCUGUCAGAUUCUGGUGAAUCUGCAAAUUCUGCUGUAUAUCUC [A5G C29U G63A], for which the self-cleavage turned out to be 0.73.

In the case of UAACGGGGGGCCACAGUAGAAGCGUUCACGUCGUAGCCCCUGUCAGUUUCAGGUGAAUCUGCGGAUCCUGCUGUAUAUCUC [A5G C17U C34U A47U U51A A64G U67C], the self-cleavage turned out to be 0.08.

Regarding UAACGGGGGGCCACAGCAGAAGCGUUCACGUCGCAGCCCUUGACAGAUUCUGGUGAAUCUGCGAAUUCUGCUGUAUAUCUC [A5G C40U U43A], the self-cleavage is 0.25.

Regarding UAACGGGGGGCCACAGUAGAAGCGUUCACGUCGCAGCCCCUGUCAGAUUCUGGAGAAUCUGCUAAUUCUGCUGUUUAUCUC [A5G C17U U54A G63U A75U], the self-cleavage turned out to be 0.81.

With UAACGGGGGGCCACAGCAGAAGCGUUCACGUCGCAGCUCCUGUCAGAUUCUGGUGAAUCUGUGAAUUCCGCUGUAAAUCUC [A5G C38U C62U U69C U76A], the self-cleavage was determined as 0.44.

For UAACGGGGGGCCACAGCAGAAGCGUUAACGUCGCAGCCCCUGUCAGAUCCUGGUGAAUCUGCGAAUUCUGCUGUAUACCUC [A5G C27A U49C U78C], the self-cleavage turned out to be 0.24.

In the case of UAACGGGGGGCCACAGCAGAAGCGUUCACGUCGCAGCCCUUGUCAGAUUCUGGCGAAUCAGCGAAUUCUGCUGUAUAUCUC [A5G C40U U54C U60A], the self-cleavage is 0.44.

For the variant UAACGGGGGGCCACAGCAGAAGCGUUCACGUCGCAGCCCUUGUCAGAUUCUGGUGAAUCAGCGAAUUCCGCUGUAUAUCUC [A5G C40U U60A U69C], the self-cleavage was determined as 0.13.

Take UAACGGGGGGCCACAGCAGAAGAGUUCACGUCGCAGCCCCUGUCAGAUUCUGGUGAAUCUGCGAAUUCUGCAUUAUAUCUC [A5G C23A U72A G73U]: the self-cleavage came out at 0.08.

As to UAACGGGGGGCCACAGCAGAAGCGUUCACGUAGCAGCCCCUGUCCGAUUCUGGUGAAUCUGCGAAUUCUGCUGUUUAUCUC [A5G C32A A45C A75U], the self-cleavage was 0.1.

Consider UAACGGGGGGCCACAGCAGAAGCGUUCACGUCGCAGCGCCUGCCAGAUUCUGGUGAAUCUGCGAAUUCUGCUGUAUAUCAC [A5G C38G U43C U80A], for which the self-cleavage worked out at 0.29.

In the case of UAACGGGGGGCCACAGCAGAAGCGUUCACGUCGCAGCUCCUGUCAGCUACUGGUGAAUCCGCGAAUUCUGCUGUAUAUCUC [A5G C38U A47C U49A U60C], the self-cleavage was determined as 0.09.

Take UAACGGGGGGCCACAGCAGAAGCGUUCAGGUCGCUGCCCCCGUCAGAUUCUGGUGAAUCUGCGAAUUCUGCUGUAUAUCUC [A5G C29G A35U U41C]: the self-cleavage turned out to be 0.3.

Regarding UAACGGGGGGCCACAGCAGAAGCGUUCAAGUCGUAGCCCCUGCCAGAUCCUGGUGAAUCUGCGAAUUCUGCUGUAUAUCUC [A5G C29A C34U U43C U49C], the self-cleavage is 0.25.

Regarding UAACGGGGGGCCACAGCAGAAGCGUUCAGGUCGCAGCCCCCGCCAGAUUCUGGUGAAUCUGCGAAUUCUGCUGUAUAUCUC [A5G C29G U41C U43C], the self-cleavage was 0.19.

With UAACGGGGGGCCACAGCAGAAGCGUUCACGUUGCAGCCCCUGUCAGUUUCUGGUGAAUCUGCGAAUUCUGCUGUAUAUCUC [A5G C32U A47U], the self-cleavage turned out to be 0.5.

Regarding UAACGGGGGGCCACAGCAGAAGCGUUCACGUCGCAGCCACUGUCAGAUUCUGGUGAGUCUGCGAAUUCUGCUGUUUAUCUC [A5G C39A A57G A75U], the self-cleavage came out at 0.35.

Turning to UAACGGGGGGCCACAGCAGAAGAGUUCACGUCGCAGCCCCUGUCAGGUUCUGGUGAAUCUGCGAAUUCUGCUGUAUAUCUC [A5G C23A A47G], the self-cleavage amounted to 0.69.
